The record followed here is US9873709B2 (priority 2013, dated 2018).

Where a name gives a salt, the structure may show the parent alone.

For orientation: Ki means the dissociation constant of the complex between target and ligand, obtained from inhibition or displacement.

The assay deals with isolated recombinant JAK1 kinase domain (Homo sapiens (Human), UniProt P23458). Particulars: read-out: JAK1 Ki; isolated recombinant JAK1 kinase domain, 25 μM ATP.
On to `CN1CCC(N(C)C(=O)c2ccc(Nc3nc4c(N5CCC(C)(c6ccccc6)CC5)cccn4n3)cc2)CC1` [Example 1-1, N-methyl-4-(8-(4-methyl-4-phenylpiperidin-1-yl)-[1,2,4]triazolo[1,5-a]pyridin-2-ylamino)-N-(1-methylpiperidin-4-yl)benzamide], for which the Ki was 16.7 nM.
For `CN1CCC(N(C)C(=O)c2ccc(Nc3nc4c(N5CCC(O)(C6CCCCC6)CC5)cccn4n3)cc2)CC1` [Example 1-2, 4-[[8-(4-cyclohexyl-4-hydroxy-1-piperidyl)-[1,2,4]triazolo[1,5-a]pyridin-2-yl]amino]-N-methyl-N-(1-methyl-4-piperidyl)benzamide], the Ki was 74 nM.
Regarding `COC1(c2ccccc2)CCN(c2cccn3nc(Nc4ccc(C(=O)N(C)C5CCN(C)CC5)cc4)nc23)CC1` [Example 1-5, 4-[[8-(4-methoxy-4-phenyl-1-piperidyl)-[1,2,4]triazolo[1,5-a]pyridin-2-yl]amino]-N-methyl-N-(1-methyl-4-piperidyl)benzamide; hydrochloride], the Ki was found to be 44.8 nM.
The result for `CN1CCC(N(C)C(=O)c2ccc(Nc3nc4c(N5CCCC(O)(c6ccccc6)CC5)cccn4n3)cc2)CC1` (stereo not shown) [Example 1-7, 4-[[8-(4-hydroxy-4-phenyl-azepan-1-yl)-[1,2,4]triazolo[1,5-a]pyridin-2-yl]amino]-N-methyl-N-(1-methyl-4-piperidyl)benzamide] reads 62.1 nM.
With `COC1CCN(c2cccn3nc(Nc4ccc(C(=O)N(C)C5CCN(C)CC5)cc4)nc23)CC1` [Example 1-8, 4-[[8-(4-methoxy-1-piperidyl)-[1,2,4]triazolo[1,5-a]pyridin-2-yl]amino]-N-methyl-N-(1-methyl-4-piperidyl)benzamide], the Ki was 140 nM.
In the case of `CN1CCC(N(C)C(=O)c2ccc(Nc3nc4c(N5CCC=C(c6ccccc6)CC5)cccn4n3)cc2)CC1` [Example 1-14, N-methyl-N-(1-methyl-4-piperidyl)-4-[[8-(4-phenyl-2,3,6,7-tetrahydroazepin-1-yl)-[1,2,4]triazolo[1,5-a]pyridin-2-yl]amino]benzamide], the Ki worked out at 52.4 nM.
As to `CN1CCC(N(C)C(=O)c2ccc(Nc3nc4c(N5CC=C(c6ccccc6)CCC5)cccn4n3)cc2)CC1` [Example 1-15, N-methyl-N-(1-methyl-4-piperidyl)-4-[[8-(5-phenyl-2,3,4,7-tetrahydroazepin-1-yl)-[1,2,4]triazolo[1,5-a]pyridin-2-yl]amino]benzamide], the Ki is 187 nM.
For `CN1CCC(N(C)C(=O)c2ccc(Nc3nc4c(N5CCC(F)(c6ccccc6)CC5)cccn4n3)cc2)CC1` [Example 1-16, 4-[[8-(4-fluoro-4-phenyl-1-piperidyl)-[1,2,4]triazolo[1,5-a]pyridin-2-yl]amino]-N-methyl-N-(1-methyl-4-piperidyl)benzamide], the inhibitory constant (Ki) is 185 nM.
The result for `CN1CCC(N(C)C(=O)c2ccc(Nc3nc4c(N5CCC(O)(c6cccc(Cl)c6)CC5)cccn4n3)cc2)CC1` [Example 1-18, 4-[[8-[4-(3-chlorophenyl)-4-hydroxy-1-piperidyl]-[1,2,4]triazolo[1,5-a]pyridin-2-yl]amino]-N-methyl-N-(1-methyl-4-piperidyl)benzamide] reads 87.9 nM.
In the case of `CN1CCC(N(C)C(=O)c2ccc(Nc3nc4c(N5CCC(O)(c6ccncc6)CC5)cccn4n3)cc2)CC1` [Example 1-20, 4-[[8-[4-hydroxy-4-(4-pyridyl)-1-piperidyl]-[1,2,4]triazolo[1,5-a]pyridin-2-yl]amino]-N-methyl-N-(1-methyl-4-piperidyl)benzamide], the inhibition constant (Ki) was 197 nM.
Regarding `CN1CCC(N(C)C(=O)c2ccc(Nc3nc4c(N5CCC(O)(c6ccc(C#N)cc6)CC5)cccn4n3)cc2)CC1` [Example 1-21, 4-[[8-[4-(4-cyanophenyl)-4-hydroxy-1-piperidyl]-[1,2,4]triazolo[1,5-a]pyridin-2-yl]amino]-N-methyl-N-(1-methyl-4-piperidyl)benzamide], the Ki amounted to 14.6 nM.
As for `CN1CCC(N(C)C(=O)c2ccc(Nc3nc4c(N5CCC(O)(c6cccc(C#N)c6)CC5)cccn4n3)cc2)CC1` [Example 1-22, 4-[[8-[4-(3-cyanophenyl)-4-hydroxy-1-piperidyl]-[1,2,4]triazolo[1,5-a]pyridin-2-yl]amino]-N-methyl-N-(1-methyl-4-piperidyl)benzamide], the Ki worked out at 171 nM.
For `CN1CCC(N(C)C(=O)c2ccc(Nc3nc4c(N5CCC(OCC#N)CC5)cccn4n3)cc2)CC1` [Example 1-23, 4-[[8-[4-(cyanomethoxy)-1-piperidyl]-[1,2,4]triazolo[1,5-a]pyridin-2-yl]amino]-N-methyl-N-(1-methyl-4-piperidyl)benzamide], the Ki was determined as 11.1 nM.
`CN1CCC(N(C)C(=O)c2ccc(Nc3nc4c(N5CCC6(CNC(=O)O6)C5)cccn4n3)cc2)CC1` (stereo not shown) [Example 1-24, N-methyl-N-(1-methyl-4-piperidyl)-4-[[8-(2-oxo-1-oxa-3,7-diazaspiro[4.4]nonan-7-yl)-[1,2,4]triazolo[1,5-a]pyridin-2-yl]amino]benzamide]: the Ki is 157 nM.
For `CN1CCC(N(C)C(=O)c2ccc(Nc3nc4c(N5CCC6(CC5)CNC(=O)C6)cccn4n3)cc2)CC1` [Example 1-27, N-methyl-N-(1-methyl-4-piperidyl)-4-[[8-(3-oxo-2,8-diazaspiro[4.5]decan-8-yl)-[1,2,4]triazolo[1,5-a]pyridin-2-yl]amino]benzamide], the Ki stood at 221 nM.
On to `CN1CCC(N(C)C(=O)c2ccc(Nc3nc4c(N5CCC6(CC5)CNC(=O)O6)cccn4n3)cc2)CC1` [Example 1-28, N-methyl-N-(1-methyl-4-piperidyl)-4-[[8-(2-oxo-1-oxa-3,8-diazaspiro[4.5]decan-8-yl)-[1,2,4]triazolo[1,5-a]pyridin-2-yl]amino]benzamide], for which the Ki is 70.4 nM.
In the case of `CN1CCC(N(C)C(=O)c2ccc(Nc3nc4c(N5CCC(CC(N)=O)(c6ccccc6)CC5)cccn4n3)cc2)CC1` [Example 1-30, 4-[[8-[4-(2-amino-2-oxo-ethyl)-4-phenyl-1-piperidyl]-[1,2,4]triazolo[1,5-a]pyridin-2-yl]amino]-N-methyl-N-(1-methyl-4-piperidyl)benzamide], the Ki worked out at 1.7 nM.
Regarding `CN1CCC(N(C)C(=O)c2ccc(Nc3nc4c(N5CCN6C(=O)NCCC6C5)cccn4n3)cc2)CC1` (stereo not shown) [Example 1-31, N-methyl-N-(1-methyl-4-piperidyl)-4-[[8-(6-oxo-3,4,7,8,9,9a-hexahydro-1H-pyrazino[1,2-c]pyrimidin-2-yl)-[1,2,4]triazolo[1,5-a]pyridin-2-yl]amino]benzamide], the Ki was found to be 453 nM.
The result for `CN1CCC(N(C)C(=O)c2ccc(Nc3nc4c(N5CCN(C(=O)N6CC(C)(C)C6)CC5)cccn4n3)cc2)CC1` [Example 1-34, 4-[[8-[4-(3,3-dimethylazetidine-1-carbonyl)piperazin-1-yl]-[1,2,4]triazolo[1,5-a]pyridin-2-yl]amino]-N-methyl-N-(1-methyl-4-piperidyl)benzamide] reads 18.7 nM.
With `CN1CCC(N(C)C(=O)c2ccc(Nc3nc4c(N5CCC(O)(c6ccccc6Cl)CC5)cccn4n3)cc2)CC1` [Example 1-35, 4-[[8-[4-(2-chlorophenyl)-4-hydroxy-1-piperidyl]-[1,2,4]triazolo[1,5-a]pyridin-2-yl]amino]-N-methyl-N-(1-methyl-4-piperidyl)benzamide], the Ki worked out at 184 nM.
In the case of `CCc1ccc(C2(O)CCN(c3cccn4nc(Nc5ccc(C(=O)N(C)C6CCN(C)CC6)cc5)nc34)CC2)cc1` [Example 1-36, 4-[[8-[4-(4-ethylphenyl)-4-hydroxy-1-piperidyl]-[1,2,4]triazolo[1,5-a]pyridin-2-yl]amino]-N-methyl-N-(1-methyl-4-piperidyl)benzamide], the Ki was found to be 7.35 nM.
Consider `Cc1ccc(C2(O)CCN(c3cccn4nc(Nc5ccc(C(=O)N(C)C6CCN(C)CC6)cc5)nc34)CC2)cc1` [Example 1-39, 4-[[8-[4-hydroxy-4-(p-tolyl)-1-piperidyl]-[1,2,4]triazolo[1,5-a]pyridin-2-yl]amino]-N-methyl-N-(1-methyl-4-piperidyl)benzamide], for which the Ki was 7.73 nM.
Consider `COc1ccc(C2(O)CCN(c3cccn4nc(Nc5ccc(C(=O)N(C)C6CCN(C)CC6)cc5)nc34)CC2)cc1` [Example 1-40, 4-[[8-[4-hydroxy-4-(4-methoxyphenyl)-1-piperidyl]-[1,2,4]triazolo[1,5-a]pyridin-2-yl]amino]-N-methyl-N-(1-methyl-4-piperidyl)benzamide], for which the Ki was found to be 11.5 nM.
The result for `CN1CCC(N(C)C(=O)c2ccc(Nc3nc4c(N5CCC(CC#N)(c6ccccc6)CC5)cccn4n3)cc2)CC1` [Example 1-41, 4-[[8-[4-(cyanomethyl)-4-phenyl-1-piperidyl]-[1,2,4]triazolo[1,5-a]pyridin-2-yl]amino]-N-methyl-N-(1-methyl-4-piperidyl)benzamide] reads 2.05 nM; that for `CN1CCC(N(C)C(=O)c2ccc(Nc3nc4c(N5CCC(C(=O)N6CC(C)(C)C6)CC5)cccn4n3)cc2)CC1` [Example 1-42, 4-{8-[4-(3,3-Dimethyl-azetidine-1-carbonyl)-piperidin-1-yl]-1,8a-dihydro [1,2,4]triazolo[1,5a]pyridine-2-ylamino}-N-methyl-N-(1-methyl-piperidin-4-yl)-benzamide], 920 nM.
Take `CN1CCC(N(C)C(=O)c2ccc(Nc3nc4c(N5CCC(O)(c6ccccc6)CC5)cccn4n3)cc2)CC1` [Example 1-43, 4-[[8-(4-hydroxy-4-phenyl-1-piperidyl)-[1,2,4]triazolo[1,5-a]pyridin-2-yl]amino]-N-methyl-N-(1-methyl-4-piperidyl)benzamide]: the Ki is 31 nM.
Consider `COCCOc1cc(COC2CCN(c3cccn4nc(Nc5ccc(C(=O)N(C)C6CCN(C)CC6)cc5)nc34)CC2)ccn1` [Example 1-44, 4-[[8-[4-[[2-(2-methoxyethoxy)-4-pyridyl]methoxy]-1-piperidyl]-[1,2,4]triazolo[1,5-a]pyridin-2-yl]amino]-N-methyl-N-(1-methyl-4-piperidyl)benzamide], for which the Ki came to 52.4 nM.
The result for `CN1CCC(N(C)C(=O)c2ccc(Nc3nc4c(N5CCC(C#N)(c6ccccc6)CC5)cccn4n3)cc2)CC1` [Example 1-45, 4-[[8-(4-cyano-4-phenyl-1-piperidyl)-[1,2,4]triazolo[1,5-a]pyridin-2-yl]amino]-N-methyl-N-(1-methyl-4-piperidyl)benzamide] reads 194 nM.
